Experimental data from patent US20130123253A1, “MODULATORS OF CENTRAL NERVOUS SYSTEM NEUROTRANSMITTERS” (HUMAN BIOMOLECULAR RESEARCH INSTITUTE, priority 2004, published 2013).
“And” between values parts separate entries of the source, which are not always exact repeats. Equal entries are not always repeated. Where two headings read alike, the source gives them in different places.

Key:
[1] = target: T1, human dopamine transporter (hDAT) (Homo sapiens, UniProt Q01959); details: for IC50: read-out: Reuptake (IC50, nM) hDAT; for potency at blocking hDAT reuptake: text of Example 28
[2] = target: T1, human dopamine transporter (hDAT); test: Inhibition of [125I]RTI-55 binding in HEK-hDAT cell membranes; parameters: expressed in transfected cells
[3] = target: T2, human norepinephrine transporter (hNET) (Homo sapiens, UniProt P23975); details: for IC50: read-out: Reuptake (IC50, nM) hNET
[4] = target: T2, human norepinephrine transporter (hNET); test: cell-based
[5] = target: T1, human dopamine transporter (hDAT); test: cell-based
[6] = target: T2, human norepinephrine transporter (hNET); test: Inhibition of radioligand binding in HEK-hNET cell membranes; parameters: expressed in transfected cells
[7] = Table 9, mean ± SEM, read-out: Binding (Ki, nM) hDAT
[8] = read-out: Binding (Ki, nM) hDAT
[9] = Reuptake (Kr, nM) hNET, Table 1
[10] = Reuptake (Kr, nM) hDAT, Table 1
[11] = Table 1, read-out: Binding (Ki, nM) hDAT
[12] = Table 1, read-out: Binding (Ki, nM) hNET
[13] = read-out: Binding (Ki, nM) hNET
[14] = Table 9, mean ± SEM, read-out: Binding (Ki, nM) hNET
[15] = Reuptake (kup, nM) hNET, Table 2
[16] = Reuptake (kup, nM) hDAT, Table 2
[17] = Table 2, read-out: Binding (ki, nM) hDAT
[18] = Table 2, read-out: Binding (ki, nM) hNET

T1 sequence (Q01959 whole entry): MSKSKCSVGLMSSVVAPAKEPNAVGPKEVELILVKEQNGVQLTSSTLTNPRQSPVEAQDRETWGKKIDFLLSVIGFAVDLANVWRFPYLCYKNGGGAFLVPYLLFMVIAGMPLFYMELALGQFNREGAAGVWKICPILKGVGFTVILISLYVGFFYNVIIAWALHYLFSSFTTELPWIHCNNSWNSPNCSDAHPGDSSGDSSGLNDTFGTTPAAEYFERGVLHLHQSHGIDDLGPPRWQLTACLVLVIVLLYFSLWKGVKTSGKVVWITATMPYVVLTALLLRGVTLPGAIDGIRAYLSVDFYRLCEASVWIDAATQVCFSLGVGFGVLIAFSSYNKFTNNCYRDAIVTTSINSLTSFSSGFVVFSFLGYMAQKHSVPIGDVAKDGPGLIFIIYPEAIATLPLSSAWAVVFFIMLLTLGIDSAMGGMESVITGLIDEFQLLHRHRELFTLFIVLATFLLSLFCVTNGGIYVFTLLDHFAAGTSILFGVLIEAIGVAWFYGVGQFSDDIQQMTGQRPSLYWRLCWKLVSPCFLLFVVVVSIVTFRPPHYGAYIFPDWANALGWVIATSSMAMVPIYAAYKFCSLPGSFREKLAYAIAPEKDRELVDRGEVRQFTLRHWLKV
T2 sequence (P23975 whole entry): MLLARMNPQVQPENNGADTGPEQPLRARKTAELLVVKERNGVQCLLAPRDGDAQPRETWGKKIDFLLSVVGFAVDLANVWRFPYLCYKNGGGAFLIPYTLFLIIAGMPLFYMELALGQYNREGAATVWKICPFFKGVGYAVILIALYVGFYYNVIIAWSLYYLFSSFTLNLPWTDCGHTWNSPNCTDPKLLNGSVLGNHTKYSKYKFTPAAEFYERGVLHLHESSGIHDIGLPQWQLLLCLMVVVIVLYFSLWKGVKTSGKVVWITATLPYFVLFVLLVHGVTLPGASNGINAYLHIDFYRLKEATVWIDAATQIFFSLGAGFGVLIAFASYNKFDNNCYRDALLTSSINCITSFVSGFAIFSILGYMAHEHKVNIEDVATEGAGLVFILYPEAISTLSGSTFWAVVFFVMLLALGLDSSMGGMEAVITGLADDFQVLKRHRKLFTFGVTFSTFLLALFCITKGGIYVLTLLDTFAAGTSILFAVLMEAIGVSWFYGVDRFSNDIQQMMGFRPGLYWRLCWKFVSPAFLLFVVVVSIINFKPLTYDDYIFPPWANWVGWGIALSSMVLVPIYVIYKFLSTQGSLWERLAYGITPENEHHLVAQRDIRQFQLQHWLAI

2-(Aminomethyl)-5-(3′-pyridinylethyl)tetrahydrofuran [Compound 15i]
IC50 ([1]; Table 9, mean ± SEM): > 10000 nM | Ki [2, 7]: > 10000 nM | IC50 ([3]; Table 9, mean ± SEM): > 10000 nM

COc1ccc(F)cc1[C@@H]1CC[C@H](CCN)O1 (relative stereo) [Compound 18d, Cis-2-aminoethyl-5-(2′-methoxy-5′-fluorophenyl)tetrahydrofuran]
IC50 ([1]; Table 10, mean): > 10000 nM | Ki [2, 8]: > 10000 nM

COc1ccc(F)cc1[C@H]1CC[C@H](CCN)O1 (stereo in doubt) [Compound 18c, Trans-2-aminoethyl-5-(2′-methoxy-5′-fluorophenyl)tetrahydrofuran]
IC50 ([1]; Table 10, mean): > 10000 nM | Ki [2, 8]: 32900 nM

NCCC1CCC(CCc2ccc(-c3ccccc3)cc2)O1 (stereo not shown) [2-(aminoethyl)-5-(4′-phenylphenethyl) tetrahydrofuran]
Ki [4, 9]: 6090 nM | Ki [5, 10]: 1900 nM | Ki [2, 11]: 7900 nM | Ki [6, 12]: 1270 nM

CC(C)(C)c1ccc(CCC2CCC(CCN)O2)cc1 (stereo not shown) [2-(aminoethyl)-5-(4′-t-butyl-phenethyl) tetrahydrofuran]
Ki [4, 9]: 556 nM | Ki [5, 10]: > 10000 nM | Ki [2, 11]: > 10000 nM | Ki [6, 12]: > 10000 nM

NCCC1CCC(CCc2ccc(OC(F)(F)F)cc2)O1 (stereo not shown) [2-(aminoethyl)-5-(4′-trifluoro-methoxyphenethyl)tetra-hydrafuran]
Ki [4, 9]: > 10000 nM | Ki [5, 10]: > 10000 nM | Ki [2, 11]: > 10000 nM | Ki [6, 12]: > 10000 nM

NCCC1CCC(CCC2CCCCC2)O1 (stereo not shown) [2-(aminoethyl)-5-(cyclohexylethyl) tetrahydrofuran]
Ki [4, 9]: > 10000 nM | Ki [5, 10]: > 10000 nM | Ki [2, 11]: > 10000 nM | Ki [6, 12]: > 10000 nM

COc1ccc2ccccc2c1C1CCC(CN)O1 (stereo not shown) [2-(aminomethyl)-5-(2′-methoxy-1′-naphethyl) tetahydrofuran]
Ki [4, 9]: 339 nM | Ki [5, 10]: 603 nM | Ki [2, 11]: > 10000 nM | Ki [6, 12]: 439 nM

Cc1ccc(C2CCC(CN)O2)cc1F (stereo not shown) [2-(aminomethyl)-5-(3′-fluoro-4′-methylphenyl) tetrahydrofuran]
Ki [4, 9]: 94 nM | Ki [5, 10]: 337 nM | Ki [2, 11]: 6850 nM | Ki [6, 12]: 305 nM

NCC1CCC(c2ccc(Cl)cc2)O1 (stereo not shown) [2-(aminomethyl)-5-(4′-chlorophenyl) tetrahydrafuran]
Ki ([4]; Reuptake (Kr, nM) hNET): 61 nM | Ki [5, 10]: 313 nM | Ki [2, 8]: 6830 nM | Ki [6, 13]: 1110 nM

Cc1cc(CCC2CCC(CN)O2)ccc1F (stereo not shown) [2-(aminomethyl)-5-(4′-fluoro-3′-methylphenethyl) tetrahydrouran]
Ki [4, 9]: 526 nM | Ki [5, 10]: 2360 nM | Ki [2, 11]: 7290 nM | Ki [6, 12]: 880 nM

NCC1CCC(C2CCCCC2)O1 (stereo not shown) [2-(aminomethyl)-5-cyclohexyl tetrahydrofuran]
Ki [4, 9]: 317 nM | Ki [5, 10]: 2570 nM | Ki [2, 11]: > 10000 nM | Ki [6, 12]: 405 nM

NCC[C@@H](Oc1ccc(C(F)(F)F)cc1)c1ccccc1 [22(R), (R)-norfluoxetine, reference compound]
IC50 ([1]; Table 17, mean ± S.E.M.): 7130 ± 891 nM | IC50 [3]: 2000 ± 518 nM | Ki [6, 13]: 7340 ± 1390 nM

NCC[C@H](Oc1ccc(C(F)(F)F)cc1)c1ccccc1 [22(S), (S)-norfluoxetine, reference compound]
Ki [2, 8]: 4540 ± 1130 nM | IC50 [3]: 2806 ± 22 nM | Ki [6, 13]: 6530 ± 1190 nM

NCC1CCC(CCc2cccc3ccccc23)O1 (stereo not shown) [Compound 15a, 2-(Aminomethyl)-5-(1′-naphthethyl)tetrahydrofuran]
IC50 [3]: 3420 ± 655 nM

NCC1CCC(c2ccccc2)O1 (stereo not shown) [Compound 15b, 2-Aminomethyl-5-phenyltetrahydrofuran]
IC50 ([1]; Table 9, mean ± SEM): 147 ± 22.2 nM | potency at blocking hDAT reuptake [1]: considerable potency at blocking transporter reuptake | potency at blocking hNET reuptake [3]: considerable potency at blocking transporter reuptake | IC50 [3]: 23 ± 5 nM

NCC1CCC(c2ccc3ccccc3c2)O1 (stereo not shown) [Compound 15c, 2-(Aminomethyl)-5-(2′-naphthyl)tetrahydrofuran]
IC50 ([1]; Table 9, mean ± SEM): 28 ± 10 nM | potency at blocking hDAT reuptake [1]: considerable potency at blocking transporter reuptake | Ki [2, 7]: 512 ± 33 nM | IC50 ([3]; Table 9, mean ± SEM): 58.5 ± 13.8 nM | potency at blocking hNET reuptake ([3]; text of Example 28): considerable potency at blocking transporter reuptake

NCC1CCC(CCc2ccccc2)O1 (stereo not shown) [Compound 15d, 2-(Aminomethyl)-5-phenethyltetrahydrofuran]
IC50 ([1]; Table 9, mean ± SEM): 513 ± 68 nM | Ki [2, 7]: 1500 ± 278 nM | IC50 ([3]; Table 9, mean ± SEM): 360 ± 14.8 nM | Ki [6, 14]: 2740 ± 480 nM

NCC1CCC(c2cccc3ccccc23)O1 (stereo not shown) [Compound 15e, 2-(Aminomethyl)-5-(1′-naphthyl)tetrahydrofuran]
IC50 ([1]; Table 9, mean ± SEM): 463 ± 119 nM | Ki [2, 7]: 8520 ± 229 nM | IC50 ([3]; Table 9, mean ± SEM): 210 ± 19.5 nM

NCC1CCC(c2ccc(Cl)cc2)O1 (stereo not shown) [Compound 15f]
IC50 ([1]; Table 9, mean ± SEM): 313 ± 76.1 nM | potency at blocking hNET reuptake [3]: considerable potency at blocking transporter reuptake | IC50 [3]: 61.2 ± 18.9 nM

NCC1CCC(c2ccc(Br)cc2)O1 (stereo not shown) [Compound 15g]
IC50 ([1]; Table 9, mean ± SEM): 167 ± 68.6 nM | Ki [2, 7]: 6120 ± 895 nM | IC50 ([3]; Table 9, mean ± SEM): 59.5 ± 20.5 nM | potency at blocking hNET reuptake ([3]; text of Example 28): considerable potency at blocking transporter reuptake

NCC1CCC(CCc2c(F)c(F)c(F)c(F)c2F)O1 (stereo not shown) [Compound 15h, 2-Aminomethyl-5-pentafluorophenethyltetrahydrofuran]
IC50 ([1]; Table 9, mean ± SEM): 4590 ± 692 nM

COc1ccc(C2CCC(CN)O2)cc1 (stereo not shown) [Compound 15j, 2-Aminomethyl-5-(p-methoxyphenyl)tetrahydrofuran]
IC50 ([1]; Table 9, mean ± SEM): 668 ± 215 nM | IC50 ([3]; Table 9, mean ± SEM): 92 ± 29.5 nM | Ki [6, 14]: 2010 ± 67 nM

CC(C)(C)c1ccc(C2CCC(CN)O2)cc1 (stereo not shown) [Compound 15k, 2-Aminomethyl-5-(p-t-butylphenyl)tetrahydrofuran]
IC50 ([1]; Table 9, mean ± SEM): 4300 ± 919 nM | IC50 ([3]; Table 9, mean ± SEM): 2320 ± 801 nM | Ki [6, 14]: 4540 ± 266 nM

Cc1cc(CCC2CCC(CCN)O2)ccc1F (stereo not shown) [Compound 17c, 2-Aminoethyl-5-(4′-fluoro-3′-methylphenethyl)tetrahydrofuran]
IC50 ([1]; Table 9, mean ± SEM): 509 ± 136 nM | IC50 ([3]; Table 9, mean ± SEM): 374 ± 110 nM | Ki [6, 14]: 882 ± 22 nM

NCCC1CCC(Cc2ccccc2)O1 (stereo not shown) [Compound 17d, 2-(2′-aminoethyl)-5-benzyltetrahydrofuran]
IC50 ([1]; Table 9, mean ± SEM): 565 ± 154 nM | IC50 [3]: 347 ± 70.1 nM

NCCC1CCC(CCc2ccc(O)cc2)O1 (stereo not shown) [Compound 17e, 2-Aminoethyl-5-(4′-hydroxyphenethyl)tetrahydrofuran]
IC50 ([1]; Table 9, mean ± SEM): 2530 ± 298 nM | Ki [2, 7]: 5500 ± 381 nM | IC50 [3]: 2130 ± 345 nM

COc1ccc(F)cc1CCCC1CCC(CCN)O1 (stereo not drawn) [Compound 18p, Cis-2-aminoethyl-5-(3′-(2″-methoxy-5″-fluorophenyl)-1′-propyl)tetrahydrofuran]
IC50 ([1]; Table 10, mean): 41300 nM | Ki [2, 8]: 21200 nM

NCCC1CCC(CCc2ccccc2)O1 (stereo not shown) [MM-II-41]
Ki [4, 9]: 2930 nM and 3210 nM | Ki [5, 10]: 2780 nM and 2700 nM | Ki [2, 11]: 6490 nM and 5110 nM | Ki [6, 12]: 7540 nM and 6380 nM

COc1ccc(F)cc1C1CCC(CCNCCC2CCC(c3cc(F)ccc3OC)O2)O1 (stereo not drawn) [N,N-bis (cis-5′-(2″- methoxy-5″-fluoro-phenyl-2′-tetrahydro-furyl)ethyl) Amine]
Ki [4, 15]: 4180 nM | Ki [5, 16]: 2980 nM | Ki [2, 17]: 2650 nM | Ki [6, 18]: 3030 nM

c1ccc2cc(C3CCC(CCNCCC4CCC(c5ccc6ccccc6c5)O4)O3)ccc2c1 (stereo not shown) [N,N-bis(5′-(2″- naphthyl-2′-tetrahydro-furyl)ethyl) Amine]
Ki [4, 15]: 2290 nM | Ki [5, 16]: 51 nM | Ki [2, 17]: 75 nM | Ki [6, 18]: 1300 nM

c1cncc(CCC2CCC(CCNCCC3CCC(CCc4cccnc4)O3)O2)c1 (stereo not shown) [N,N-bis(5′-(3″- pyridyl-ethyl)-2′-tetra-hydro-furylethyl) amine]
Ki [4, 15]: > 10000 nM | Ki [5, 16]: > 10000 nM | Ki [2, 17]: 12300 nM | Ki [6, 18]: 7750 nM

Cc1cc(CCC2CCC(CCNCCC3CCC(CCc4ccc(F)c(C)c4)O3)O2)ccc1F (stereo not shown) [N,N-bis(5′-(p-fluoro-m-methyl-phenethyl)-2′-tetra-hydro-furylethyl) amine]
Ki [4, 15]: 7680 nM | Ki [5, 16]: 5740 nM | Ki [2, 17]: 798 nM | Ki [6, 18]: 1570 nM

c1ccc(CC2CCC(CCNCCC3CCC(Cc4ccccc4)O3)O2)cc1 (stereo not shown) [N,N-bis(5′-benzyl-2′-tetrahydro-furyl)-2-ethyl) amine]
Ki [4, 15]: 347 nM | Ki [5, 16]: 564 nM | Ki [2, 17]: 1310 nM | Ki [6, 18]: 605 nM

CN(CCC1CCC(CCc2ccccc2)O1)CCC1CCC(CCc2ccccc2)O1 (stereo not shown) [N,N-bis(5′-phenethyl-2′-tetra-hydro-furylethyl) methyl-amine]
Ki [4, 15]: 1280 nM | Ki [5, 16]: 582 nM | Ki [2, 17]: 84 nM | Ki [6, 18]: 168 nM

c1ccc(CCC2CCC(CCNCCC3CCC(CCc4ccccc4)O3)O2)cc1 (stereo not shown) [N,N-bis(5′-phenethyl-2′-tetrahydro-furyl-ethyl) Amine]
Ki [4, 15]: 169 nM | Ki [5, 16]: 1560 nM | Ki [2, 17]: 30 nM and 18 nM | Ki [6, 18]: 379 nM and 361 nM

c1ccc(C2CCC(CCNCCC3CCC(c4ccccc4)O3)O2)cc1 (stereo not shown) [N,N-bis(5′-phenyl-2′-tetrahydro-furyl-ethyl) amine]
Ki [4, 15]: 802 nM | Ki [5, 16]: 609 nM | Ki [2, 17]: 970 nM | Ki [6, 18]: 777 nM

N,N-bis(5′- (1″- naphth- ethyl)- 2′-tetra- hydro- furylethyl) amine
Ki ([1]; read-out: Reuptake (kup, nM) hDAT, Table 2): > 10000 nM | Ki [2, 17]: 1080 nM | Ki ([3]; read-out: Reuptake (kup, nM) hNET, Table 2): > 10000 nM | Ki [6, 18]: 4340 nM
